Results from PubChem BioAssay AID686979 (National Center for Advancing Translational Sciences (NCATS), 2013).
Values joined by “and” are separate entries in the source; they are usually repeats but may differ in a detail not shown here. Equal entries are not always repeated. About 50,000 (12%) of roughly 420,000 compounds were called active. Inconclusive results, whose numbers are uncertain, are shown with a selection of clear calls. The call rests on the fitted dose curve; in most records, active means well fitted inhibition curve with a large enough effect; inconclusive means small, poorly fitted or top-dose-only effect; inactive means flat fitted curve, though single readings scatter. No potency is given beside an inconclusive call; the fits are too rough.

Experiment: qHTS for Inhibitors of human tyrosyl-DNA phosphodiesterase 1 (TDP1): qHTS in cells in presence of CPT; further: nearly all actives have a fitted effect of over 55% in size
Conditions: chicken DT40 Tdp1-/-;hTDP1 cells + 20 nM CPT, ATP luminescence, 48 h; series mostly up to 46.2 µM
Method in brief: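 Chicken DT40 Tdp1-/- cells stably complemented with human TDP1 were seeded at 400 cells/well in medium containing 20 nM camptothecin, exposed to pin-transferred compounds, and grown at 37 °C for at least 48 hr. Viability was read as ATP luminescence.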
Potency means the concentration at half of the fitted maximal effect; tags describe the fitted curve by direction and shape.

Row | SMILES | Potency
1 | Cc1cc(NC(=O)COc2ccc(C(C)(C)C)cc2)no1 | inactive
2 | Cc1cc(S(=O)(=O)C(CNC(=O)c2ccc(F)c(F)c2)c2cccs2)ccc1F (stereo unspecified) | inactive
3 | O=C(COC(=O)CCc1c[nH]c2ccccc12)NCc1ccc2c(c1)OCO2 | inactive
4 | Cc1ccc2cccc(OCCCOc3ccccc3F)c2n1 | inconclusive [inhibitor, single point]
5 | Cc1cccc(OCC(=O)NC2CCCCCC2)c1C | inconclusive [inhibitor, partial curve]
6 | COc1ccc(CCNC(=O)CCCN2C(=O)c3ccccc3C2=O)cc1 | inactive
7 | CCCCN(C)CCCNC(=O)c1cc(-c2cccs2)nc2ccccc12 | active: 29.1 µM
8 | CC(C)(C)c1csc(N(CCC#N)CCC#N)n1 | inactive
9 | COc1ccc(CCNCc2ccc(-c3ccccc3)cc2)cc1OC | inconclusive [inhibitor, single point]
10 | COC(=O)c1cc(Cl)c(NC(=O)c2ccc(C(C)(C)C)cc2)cc1OC | active: 25.9 µM
11 | Cc1cc(C)c2c(CC(=O)Nc3ccc(S(=O)(=O)Nc4nc(C)cc(C)n4)cc3)coc2c1 | inconclusive [inhibitor, single point]
12 | CN(c1ccccc1)S(=O)(=O)c1cccc(NC(=O)CCNC(=O)c2ccco2)c1 | inconclusive [inhibitor, single point]
13 | COc1cc(/C=N/n2cnnc2)ccc1OC(=O)c1ccncc1 | inconclusive [inhibitor, partial curve, poor fit]
14 | COc1ccc(Nc2nc(N)nc(CN3CCC(Cc4ccccc4)CC3)n2)cc1 | inconclusive [inhibitor, single point]
15 | CN(c1ccccc1)S(=O)(=O)c1cc(C(=O)OCC(=O)c2c(N)n(C)c(=O)n(C)c2=O)ccc1Cl | active: 25.9 µM
16 | COC(=O)Nc1ccc(S(=O)(=O)N2CCCC(C(=O)N3CCC(C)CC3)C2)cc1 (stereo unspecified) | inconclusive [inhibitor, partial curve]
17 | Cn1c(N)c(C(=O)CSc2nn(-c3ccccc3)c(=S)s2)c(=O)n(C)c1=O | inconclusive [inhibitor, single point]
18 | O=C(NC1CCCC1)c1n[nH]c2ccccc12 | inactive
19 | O=C(CCl)N(C1CCCC1)C1CCS(=O)(=O)C1 (stereo unspecified) | active: 18.4 µM
20 | Cn1c(-c2ccccc2F)cc2onc(-c3ccccc3)c2c1=O | inconclusive [inhibitor, single point]
21 | CCC(=O)N1CCN(c2ccc(NC(=S)NC(=O)c3cccc([N+](=O)[O-])c3)cc2)CC1 | inconclusive [inhibitor, partial curve]
22 | c1ccc(CNc2nc(-c3ccccn3)nc3ccccc23)cc1 | active: 3.66 µM
23 | Clc1cccc(Cl)c1Cn1cnc2c(N3CCCCCC3)ncnc21 | active: 18.4 µM

Row | SMILES | Potency
24 | CCN(CC)CCCN=C1N[C@@H](c2cccc(F)c2)C(C(=O)OC)=C(C)N1Cc1ccccc1 | inconclusive [inhibitor, full curve, poor fit]
25 | O=C(COC(=O)c1ccncc1)c1ccccc1 | inactive
26 | CCCSCCCNC(=O)C1CCN(c2nc3ccccc3nc2C(F)(F)F)CC1 | active: 20.6 µM
27 | O=C(NCC(c1cccs1)N1CCOCC1)C1CCN(S(=O)(=O)c2cccc(C(F)(F)F)c2)CC1 (stereo unspecified) | inconclusive [inhibitor, single point]
28 | Cc1ccc(NC(=O)C(=O)NCC(c2cccnc2)N2CCN(Cc3ccccc3)CC2)cc1F (stereo unspecified) | active: 7.31 µM
29 | CCCCn1cnc2cc(NCc3ccccc3Cl)ccc21 | inconclusive [inhibitor, single point]
30 | Cc1cccc(/C=C/c2onc(C)c2S(=O)(=O)N2CCC(C(=O)N3CCCCC3)CC2)c1 | active: 23.1 µM and active: 29.1 µM
31 | COc1ccc(N2CCN(C(=O)/C=C/c3ccco3)CC2)cc1 | inactive
32 | Cc1ccc(-n2ncc3c(Nc4cccc(C(=O)O)c4)ncnc32)cc1 | inconclusive [inhibitor, single point]
33 | O=C(Nc1ccccc1N1CCN(C(=O)c2ccccc2)CC1)c1ccco1 | inconclusive [inhibitor, single point]
34 | Cc1cccc(NS(=O)(=O)c2cc3c(cc2C)NC(=O)CO3)c1 | inconclusive [inhibitor, partial curve]
35 | Cc1oc(-c2ccc(C(=O)NCc3ccccc3)cc2)nc1CN1CCc2ccccc21 | inconclusive [inhibitor, single point]
36 | CCC(CC)NC(=O)Nc1ccc(F)c(Cl)c1 | inconclusive [inhibitor, single point]
37 | O=C(COc1ccc2ccccc2c1)Nc1ccc2c3c(cccc13)CC2 | inconclusive [inhibitor, partial curve]
38 | Cc1csc(CN(C)C(=O)c2cn(Cc3cccc4ccccc34)nn2)n1 | inconclusive [inhibitor, single point]
39 | CC(C)[C@H](NC(=O)[C@@H]1Cc2c([nH]c3ccccc23)C2c3ccccc3C(=O)N21)C(=O)NCC1CCCO1 (stereo partly specified) | inconclusive [inhibitor, single point]
40 | Cc1cc(N/C=C/C(=O)c2ccccc2)ccc1Br | inconclusive [inhibitor, single point]
41 | CCCc1ccc(O)c(N=Cc2cc(Br)cc(OCC)c2O)c1 | active: 3.66 µM
42 | Nc1cc(Oc2ccc(Cl)cc2Cl)nc(N)n1 | inactive
43 | COc1ccc(NC(=O)C2CCCN(S(=O)(=O)c3cccc4cccnc34)C2)c(OC)c1 (stereo unspecified) | inconclusive [inhibitor, single point]
44 | CSc1nnc(-c2cc3c(-c4ccccc4)nn(C)c3s2)n1C | inconclusive [inhibitor, single point]
45 | N#C/C(=C\c1ccc2c(c1)OCCO2)C(=O)Nc1ccc(C(=O)O)cc1 | inactive
46 | O=C(CC(=O)N/N=C/c1c(Cl)cccc1Cl)NCc1cccnc1 | inactive
